Laboratory results reported in the supplement of paper PMC10498489.
Out of some 2,300 compounds screened, about 330 (14%) showed activity.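 Rule for the calls: active = median modified Z-score above 1.96; inactive = 1.96 or below.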 The entries are a selection whose mix differs from that of the whole data set.

system: HepG2 Srxn1-GFP reporter cells (+30 nM CDDO-Me); assay: Srxn1-GFP intensity median modified Z-score relative to plate median; higher = stronger NRF2 / oxidative stress reporter activation, active = hit call of the paper; details: 10 µM; exposure time: 24h
How it was run: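 HepG2 Srxn1-GFP BAC reporter cells (20,000 per well, 96-well plates) were co-exposed to an NRF2 activator at 30 nM and compound at 10 μM (≤0.1% DMSO) for 24 h in three replicate plates. After formaldehyde fixation and Hoechst staining, confocal images were analysed per cell for cytoplasmic GFP, excluding images with under 100 cells. The value is the median over replicates of the per-plate modified Z-score of GFP intensity. Scaling used 1.4826 × median absolute deviation.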

Compound | Srxn1-GFP intensity median modified Z-score
CN(C)CCC(c1ccccc1)c1ccccn1 (stereo unspecified) [euspeclibcmpd233] | inactive: 0.0882
O=c1c(O)c(-c2ccccc2)oc2cc(O)cc(O)c12 [euspeclibcmpd1698] | inactive: 0.613
O=C(O)c1cc(=O)c2c(OCC(O)COc3cccc4oc(C(=O)O)cc(=O)c34)cccc2o1 [euspeclibcmpd2347] | inactive: 0.044
CC(C=Cc1c(C)c(O)c2ccccc2c1O)=CCC[C@H](C)CCC[C@H](C)CCCC(C)C [euspeclibcmpd621] | inactive: -0.697
CC(=O)c1ccc2c(c1)N(CCCN1CCN(CCO)CC1)c1ccccc1S2 [euspeclibcmpd619] | inactive: 0.0217
Cc1cc(=N)c2ccccc2n1CCCCCCCCCCn1c(C)cc(=N)c2ccccc21 [euspeclibcmpd1012] | active: 10
CC(=O)OC(C)C[N+](C)(C)C (stereo unspecified) [euspeclibcmpd186] | inactive: -0.428
C=CCc1ccccc1OCC(O)CNC(C)C (stereo unspecified) [euspeclibcmpd973] | inactive: -0.703
COCCn1c(SCC(=O)N(C)Cc2ccc(Cl)s2)nc2cc(Cl)ccc21 | inactive: 0.575
COc1ccc2c(c1)OCC(Cc1ccc(OC)c(OC)c1)C2=O (stereo unspecified) [euspeclibcmpd1645] | active: 15.4
C[C@@H]1CN(c2c(F)c(F)c3c(=O)c(C(=O)O)cn(C4CC4)c3c2F)C[C@H](C)N1 [euspeclibcmpd981] | inactive: -0.465
COc1cc2c(cc1OC)C1C(=O)c3ccc4c(c3O[C@@H]1CO2)C=CC(C)(C)O4 (stereo partly specified) [euspeclibcmpd1734] | active: 12.7
O=c1cc(-c2ccccc2)oc2ccc(O)cc12 [euspeclibcmpd1505] | inactive: 0.447
CC(CCc1ccc(O)cc1)NCCc1ccc(O)c(O)c1 (stereo unspecified) [euspeclibcmpd670] | inactive: 0.0455
O=C(c1ccccc1)c1ccc(Cl)cc1O | inactive: 1.14
CCOc1nc2cccc(C(=O)OC(C)OC(=O)OC3CCCCC3)c2n1Cc1ccc(-c2ccccc2-c2nn[nH]n2)cc1 (stereo unspecified) [euspeclibcmpd677] | inactive: 0.324
CC(C)(Oc1ccc(C2CC2(Cl)Cl)cc1)C(=O)O (stereo unspecified) [euspeclibcmpd1064] | inactive: -0.411
C[C@@H](O)[C@H]1C(=O)N2C(C(=O)O)=C(SCCN=CN)C[C@H]12 [euspeclibcmpd906] | inactive: -0.526
CC(C)c1c(O)ccc2c1CCC1C(C)(C)CCC[C@]21C (stereo partly specified) [euspeclibcmpd1572] | active: 8.09
NC(=O)C1(N2CCCCC2)CCN(CCCC(=O)c2ccc(F)cc2)CC1 [euspeclibcmpd843] | inactive: -0.447
CNC1(C)C2CCC(C2)C1(C)C (stereo unspecified) [euspeclibcmpd175] | inactive: -0.487
NC(=O)c1cccnc1 [euspeclibcmpd770] | inactive: -0.139
Cn1c(=O)c2c(ncn2CC(O)CO)n(C)c1=O (stereo unspecified) [euspeclibcmpd108] | inactive: -0.0859

Compound | Srxn1-GFP intensity median modified Z-score
COc1ccc2c(c1)c(CC(=O)OCC(=O)O)c(C)n2C(=O)c1ccc(Cl)cc1 [euspeclibcmpd1046] | inactive: -0.264
COC(=O)N=c1[nH]c2ccc(C(=O)c3ccc(F)cc3)cc2[nH]1 [euspeclibcmpd2318] | active: 8.09
CC(=O)NC[C@H]1CN(c2ccc(N3CCOCC3)c(F)c2)C(=O)O1 [euspeclibcmpd497] | inactive: -0.246
O=C1C(O)=C(O)C(=O)C(O)=C1O [euspeclibcmpd573] | inactive: 0.365
Cc1nccn1CC1CCc2c(c3ccccc3n2C)C1=O (stereo unspecified) [euspeclibcmpd508] | inactive: -0.204
CC(C)Cn1c(=O)n(C)c(=O)c2nc[nH]c21 [euspeclibcmpd1808] | active: 11.6
OCC(S)CS (stereo unspecified) [euspeclibcmpd98] | inactive: 0.392
O=C(c1cccnc1)N1CCOCC1 [euspeclibcmpd1288] | inactive: -0.123
COc1ccc2cc3[n+](cc2c1OC)CCc1cc2c(cc1-3)OCO2 [euspeclibcmpd1051] | active: 6.03
Cc1cc(O)cc(O)c1C(=O)O [euspeclibcmpd1613] | inactive: -0.155
CCCCCCCCCCCCCCCC(=O)OCC(O)c1oc(O)c(O)c1O (stereo unspecified) [euspeclibcmpd862] | inactive: -0.777
COCC1(C)NC(=O)N(CCC(=O)Nc2cc(C)on2)C1=O (stereo unspecified) | inactive: 1.16
CC1CCC2(OC1)OC1CC3C4CCC5C[C@@H](O)CCC5(C)C4=CCC3(C)C1[C@@H]2C (stereo partly specified) [euspeclibcmpd2138] | inactive: -0.384
CC[C@@]1(O)C(=O)OCc2c1cc1n(c2=O)Cc2cc3c(CN(C)C)c(O)ccc3nc2-1 [euspeclibcmpd620] | inactive: -0.0823
C=C1CC[C@H](O)C/C1=C/C=C1\CCC[C@]2(C)C([C@H](C)/C=C/[C@H](C)C(C)C)CC[C@@H]12 (stereo partly specified) [euspeclibcmpd112] | active: 2.55
Cc1c(C)c2c(c(C)c1O)CCC(C)(CCCC(C)CCCC(C)CCCC(C)C)O2 (stereo unspecified) [euspeclibcmpd449] | inactive: -0.0554
CCCC(=O)Nc1ccc(OCC(O)CNC(C)C)c(C(C)=O)c1 (stereo unspecified) [euspeclibcmpd329] | inactive: -0.442
N[C@@H](CC(=O)N1CCn2c(nnc2C(F)(F)F)C1)Cc1cc(F)c(F)cc1F [euspeclibcmpd2166] | active: 12.2
COc1cc2c(cc1OC)Cc1cc(OC)c(OC)cc1Cc1cc(OC)c(OC)cc1C2 [euspeclibcmpd1674] | inactive: -0.175
CC(=O)O[C@H]1CC[C@@]2(C)C(C[C@@H](OC(C)=O)[C@]3(C)C2CC[C@@]2(C)[C@H](c4ccoc4)OC(=O)C4O[C@]423)C1(C)C (stereo partly specified) [euspeclibcmpd2319] | active: 5.12
Cc1oc(=O)oc1CN1CCN(c2cc3c(cc2F)c(=O)c(C(=O)O)c2n3C(C)S2)CC1 (stereo unspecified) [euspeclibcmpd805] | inactive: -0.455
C=COCC(F)(F)F [euspeclibcmpd927] | inactive: -0.291
O=C(O)Cc1cc(I)c(Oc2ccc(O)c(I)c2)c(I)c1 [euspeclibcmpd1243] | active: 8.98
